The source of these data is article PMC11617104 (Molecular Biology of the Cell, 2024).

The data set concerns the molecule itself. Kind of data set: SEC-MALS.

B1: G3BP1 NTF2L domain ([…]), V11A (domain or fragment)
chain: not shown
Consider B1, for which the “stoichiometry N” value came out at 2.
